These are yes or no findings as the source states them, for the method shown. Binding seen in cells or lysates may run through a third protein. Some binding calls cover weakened binding; strength is not graded here. Sequences can lack the tags named with a protein.

By UniProt entry, the sequences of proteins in these tests, tags left out.
UniProt Q9DAK2: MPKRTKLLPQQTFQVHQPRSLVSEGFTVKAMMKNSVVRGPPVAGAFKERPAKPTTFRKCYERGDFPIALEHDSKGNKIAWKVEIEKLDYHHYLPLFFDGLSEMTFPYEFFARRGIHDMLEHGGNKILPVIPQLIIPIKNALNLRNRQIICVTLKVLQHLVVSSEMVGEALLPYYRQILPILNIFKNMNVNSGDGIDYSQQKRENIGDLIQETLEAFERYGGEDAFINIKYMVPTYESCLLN

Experimental findings from article PMC10735225 are described below.

Assay in all cases: co-IP; lysates of transfected HEK293T cells (Pierce IP Lysis Buffer); 2 ug anti-Myc or anti-FLAG antibody, Protein A/G agarose; western blot
For orientation: In western blotting, separated proteins are transferred to a membrane and probed.

For one assay, the target named is T1, Myc-tagged DRC4 (mouse) (UniProt Q60779).
T1 sequence: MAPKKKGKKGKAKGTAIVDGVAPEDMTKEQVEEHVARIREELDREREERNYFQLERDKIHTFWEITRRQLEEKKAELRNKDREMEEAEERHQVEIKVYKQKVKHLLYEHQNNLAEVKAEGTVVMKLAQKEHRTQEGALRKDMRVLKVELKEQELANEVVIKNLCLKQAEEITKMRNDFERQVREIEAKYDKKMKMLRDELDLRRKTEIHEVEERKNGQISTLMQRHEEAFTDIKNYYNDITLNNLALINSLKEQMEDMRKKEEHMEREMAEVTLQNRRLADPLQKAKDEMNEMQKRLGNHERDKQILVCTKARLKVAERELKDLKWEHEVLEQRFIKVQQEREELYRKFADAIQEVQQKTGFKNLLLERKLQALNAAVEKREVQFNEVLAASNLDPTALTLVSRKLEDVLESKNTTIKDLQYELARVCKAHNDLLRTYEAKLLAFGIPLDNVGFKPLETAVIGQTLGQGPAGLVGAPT

The target in a further assay is Myc-tagged PACRG (mouse) (UniProt Q9DAK2).
Another assay deals with T2, Myc-tagged ODAD3 (mouse) (UniProt Q8BSN3).
T2 sequence: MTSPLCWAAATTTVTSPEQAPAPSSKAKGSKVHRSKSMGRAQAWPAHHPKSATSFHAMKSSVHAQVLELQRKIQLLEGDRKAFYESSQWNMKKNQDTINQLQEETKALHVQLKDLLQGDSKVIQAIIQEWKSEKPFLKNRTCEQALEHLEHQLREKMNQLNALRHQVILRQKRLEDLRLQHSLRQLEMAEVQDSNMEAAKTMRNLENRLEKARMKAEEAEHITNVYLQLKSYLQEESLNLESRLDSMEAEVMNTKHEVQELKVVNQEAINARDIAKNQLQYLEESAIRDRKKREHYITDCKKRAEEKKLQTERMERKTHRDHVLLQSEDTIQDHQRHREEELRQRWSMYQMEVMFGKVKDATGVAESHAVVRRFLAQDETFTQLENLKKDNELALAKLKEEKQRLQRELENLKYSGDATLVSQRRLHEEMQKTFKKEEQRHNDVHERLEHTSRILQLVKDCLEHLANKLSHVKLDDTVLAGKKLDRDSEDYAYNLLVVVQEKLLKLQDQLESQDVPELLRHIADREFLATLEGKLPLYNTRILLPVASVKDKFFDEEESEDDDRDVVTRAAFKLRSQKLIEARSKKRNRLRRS

The target of the next assay is T3, Myc-tagged ODAD1 (mouse) (UniProt Q3UX62).
T3 sequence: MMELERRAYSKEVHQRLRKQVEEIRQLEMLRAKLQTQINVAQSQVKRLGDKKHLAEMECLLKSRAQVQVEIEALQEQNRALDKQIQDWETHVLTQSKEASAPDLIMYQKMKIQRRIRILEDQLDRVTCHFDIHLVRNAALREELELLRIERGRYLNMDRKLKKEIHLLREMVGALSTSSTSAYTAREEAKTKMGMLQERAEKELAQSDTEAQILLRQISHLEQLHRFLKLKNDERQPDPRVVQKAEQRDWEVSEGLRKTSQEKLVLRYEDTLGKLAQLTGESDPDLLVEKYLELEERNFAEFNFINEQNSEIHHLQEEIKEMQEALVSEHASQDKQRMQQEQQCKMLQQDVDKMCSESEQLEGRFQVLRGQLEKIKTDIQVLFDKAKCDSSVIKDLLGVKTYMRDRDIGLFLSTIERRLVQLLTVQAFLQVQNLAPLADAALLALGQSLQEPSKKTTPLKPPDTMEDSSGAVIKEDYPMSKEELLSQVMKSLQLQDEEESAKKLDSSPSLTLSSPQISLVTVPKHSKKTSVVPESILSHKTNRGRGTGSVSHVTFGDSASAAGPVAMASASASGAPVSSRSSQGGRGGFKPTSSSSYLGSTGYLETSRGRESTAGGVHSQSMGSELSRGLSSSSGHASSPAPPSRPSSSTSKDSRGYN

The next assay concerns the target T4, Myc-tagged RSPH1 (mouse) (UniProt Q8VIG3).
T4 sequence: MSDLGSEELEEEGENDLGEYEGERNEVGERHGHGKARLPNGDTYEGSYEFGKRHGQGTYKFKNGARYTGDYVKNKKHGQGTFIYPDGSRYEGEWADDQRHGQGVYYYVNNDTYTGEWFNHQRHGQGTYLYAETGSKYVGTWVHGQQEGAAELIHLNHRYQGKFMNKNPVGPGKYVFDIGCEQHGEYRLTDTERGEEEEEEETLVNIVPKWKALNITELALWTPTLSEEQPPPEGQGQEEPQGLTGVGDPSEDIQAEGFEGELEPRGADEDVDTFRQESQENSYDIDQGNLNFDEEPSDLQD

The target of assay [1] is T5, Myc-tagged CFAP20 (mouse) (UniProt Q8BTU1).
T5 sequence: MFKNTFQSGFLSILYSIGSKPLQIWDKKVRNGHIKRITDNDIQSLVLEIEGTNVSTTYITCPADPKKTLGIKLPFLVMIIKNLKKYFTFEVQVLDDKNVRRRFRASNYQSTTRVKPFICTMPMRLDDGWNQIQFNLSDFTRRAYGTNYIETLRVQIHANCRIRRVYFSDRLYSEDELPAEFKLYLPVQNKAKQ

B1: FLAG-tagged CFAP52 (cilia and flagella associated protein 52) (protein, UniProt Q5F201-1 1-620)
chain: MEEQVLPELDVAELELQAVIGFNGHVPNGLKCHPDQEHLIYPLGCTVLIQAINTNEQNFLHGHGNNVSCVTISKEGDYIASGQVTFMGFKADIILWDFKKRELIARLSLHKGKIEALAFSPNDLYLVSLGGPDDGSVVVWSIAKRDAICGSPAAGLNVGNATSVVFSRCRDEMFVTAGNGTIRVWELDLPNRKIWPTECQTGQMKRIVLSTGMADDDSFFYLGTTTGDILKMNPKTKLLADTGPVKDKFSLGVSALRCLKMGGLLVGSGAGLLIFCKSPSYKPIKKVQLQGGITSITLRGEGHQFFVGTEESHIYRVNFTDFKETLIATCHFEAVQDIVFPFGTAELFATCAKKDIRVWHTMSKRELLRITVPNMTCHGIDFMRDGKSIISAWDDGKIRAFAPESGRLMYTINSAHRIGVTAIATTSDCKRIISGGGEGEVRVWQVGCQTQKLEEALKEHKSSVSCIRVKKNNEECVTASTDGTCIIWDLVRLRRNQMILANTLFQCVCYHPEEFQIITSGTDRKIAYWEVFDGSVIRELEGSLSGSINGMDITQEGGHFVTGGHDHLVKVWDYNEGEVTHVGVGHSGNIMAMRISPGNQYIVSVSADGAILRWKYPFAS
Regarding B1, the binding result with Myc-tagged DRC4 (mouse) is given as “no binding”; with Myc-tagged PACRG (mouse) it was “binds”; with Myc-tagged ODAD3 (mouse), “binds”; with Myc-tagged ODAD1 (mouse), “binds”; with Myc-tagged RSPH1 (mouse), “binds”; in assay [1], “binds”.
